From PubChem BioAssay AID686979 (National Center for Advancing Translational Sciences (NCATS), 2013)
The campaign covered roughly 420,000 compounds. About 50,000 (12%) were called active. This list was built around the results that the source calls inconclusive (neither active nor inactive); the mix of calls is not that of the screen. Calls follow the shape of the dose curve; as a rule, active = well fitted inhibition curve with a large enough effect; inconclusive = small, poorly fitted or top-dose-only effect; inactive = flat fitted curve, though single readings scatter. No potency is given beside an inconclusive call; the fits are too rough. Where a SMILES comes first, the peptide text is derived from it. [ ]: non-standard residue; d: D form. The star is where a group is joined. PhAc = O=C(Cc1ccccc1)*

assay: qHTS for Inhibitors of human tyrosyl-DNA phosphodiesterase 1 (TDP1): qHTS in cells in presence of CPT; conditions: chicken DT40 Tdp1-/-;hTDP1 cells + 20 nM CPT, ATP luminescence, 48 h; activity change, negative = growth inhibition: at 46.2 µM (top of the series) unless noted; also: nearly all actives have a fitted effect of over 55% in size
How it was run: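 Cell growth measured by CellTiter-Glo luminescence after a minimum 48 h, 37 C compound exposure with 20 nM CPT in Tdp1-knockout DT40 cells stably expressing hTDP1, seeded 400/well; qHTS titration format.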
% is scaled to controls: 0 for no effect and ±100 for the full control effect; potency is read from the fitted curve at half-maximal effect; tags tell the direction and shape of the fitted curve.

| SMILES | Potency | activity change, negative = growth inhibition |
| --- | --- | --- |
| CC1CC2(CCCCC2)Nc2c1ccc1ccccc21 (stereo not given) | inconclusive [inhibitor, single point] | – |
| COc1ccc(NC(=O)CSc2nc3sc(C)cc3c(=O)n2C)c(OC)c1 | inconclusive [inhibitor, partial curve, poor fit] | – |
| Cc1cc(SCC(=O)NCCN2C(=O)CSC2=O)nc2ccccc12 | – | inconclusive: -38% [inhibitor] |
| Cc1ccc(-c2cc(C(=O)N/N=C\c3cnn(C)c3C)c3ccccc3n2)cc1C | active: 11.6 µM | – |
| CCOC(=O)N1CCN(C(=O)CS(=O)(=O)c2cn(Cc3cccc(F)c3)c3ccccc23)CC1 | inactive | – |
| COc1cc(OC)cc(C(=O)NCCNC(=O)c2ccccc2)c1 | inactive | – |
| C=C1C[C@]23C[C@@]1(O)CC[C@H]2[C@@]12C=C[C@H](O)C(C)(C(=O)O1)[C@H]2[C@@H]3CC(=O)O | – | inactive: 17.3% [at 9.04 µM] |
| CC(C)c1ccc(C2=NN(c3ccccc3)C(=O)CC2)cc1 | inconclusive [inhibitor, partial curve, poor fit] | – |
| COc1ccc(OCCn2c(NC(=O)c3ccco3)nc3ccccc32)cc1 | active: 18.4 µM | – |
| CCOc1ccc(-n2c(=O)[nH]cc(C(=O)Nc3ccc(OC)c(OC)c3)c2=O)cc1 | inactive | – |
| Cn1c(CNC(=O)c2ccco2)nnc1SCCOc1ccccc1 | inactive | – |
| O=C(CCN1C(=O)c2ccccc2C1=O)Nc1sc2c(c1C(=O)NCC1CCCO1)CCC2 (stereo not given) | inactive | – |
| COc1ccc(S[C@@H](CCN2CC[C@H](C)CCC2=O)c2ccccc2)cc1 | active: 10 µM | – |
| Cc1noc(C)c1CSc1nc2sc(C)c(C)c2c(=O)n1-c1ccccc1 | inconclusive [inhibitor, single point] | – |
| CCC(=O)Nc1cc2nn(-c3ccc(OC)cc3)nc2cc1C | inactive | – |
| CCOc1ccc(CCNC(=O)c2cc3sc(Cl)cc3n2C)cc1OCC | inconclusive [inhibitor, partial curve, poor fit] | – |
| CN(C)c1ccc(-c2csc(C(O)c3cccc(Cl)c3)n2)cc1 (stereo not given) | active: 20.6 µM | – |
| CN(Cc1ccccc1)C(=O)COC(=O)c1ccccc1SCC(=O)N1CCCC1 | inconclusive [inhibitor, single point] | – |
| c1ccc(OCCN2C3=NCCN3c3ccccc32)cc1 | inactive | – |
| CC(NCc1ccc2c(c1)OCO2)C(=O)N1CCc2ccccc21 (stereo not given) | inconclusive [inhibitor, partial curve, poor fit] | – |
| C[C@@H]1CN([C@@H](C)CO)C(=O)c2cc(NS(=O)(=O)c3ccc(F)cc3)ccc2O[C@@H](C)CCCCO[C@H]1CN(C)C(=O)NC1CCCCC1 | active: 23.1 µM | – |
| CCC(CC)c1nnc(NC(=O)[C@@H](NC(=O)c2cccc(C)c2)C(C)C)s1 | inactive | – |
| O=C(CNC(=O)c1ccc2ccccc2c1)NC1CCCCC1 | inactive | – |
| COCc1cccc(C2=CC(=O)C[C@H](c3ccc(F)cc3)C2)c1 | inconclusive [inhibitor, single point] | – |

| SMILES | Potency | activity change, negative = growth inhibition |
| --- | --- | --- |
| Cc1cc(NC(=O)CCC(=O)N(c2ccccc2)C(C(=O)NC(C)(C)C)c2ccccc2Cl)no1 (stereo not given) | inactive | – |
| CC(C)=CC(O)C/C(C)=C/COc1ccc2ccc(=O)oc2c1 (stereo not given) | active: 7.31 µM | – |
| Cc1csc(Sc2ccc([N+](=O)[O-])cc2C(=O)OCC(=O)NC(=O)NC(C)(C)C)n1 | inactive | – |
| CC1CCc2c(sc(NC(=O)CSc3ncn[nH]3)c2C#N)C1 (stereo not given) | inconclusive [inhibitor, single point] | – |
| O=C1CC(c2ccccc2)SC(N(c2ccccc2)c2ccccc2)=N1 (stereo not given) | inconclusive [inhibitor, single point] | – |
| O=C(NC1CCCCCC1)C(=S)NC1CCCCC1 | inactive | – |
| CCOc1ccc(Br)cc1S(=O)(=O)Nc1cccc(S(=O)(=O)N(C)c2ccccc2)c1 | inactive | – |
| O=C(CSc1nc(-c2ccco2)cc(C(F)(F)F)n1)N1CCN(Cc2ccccc2)CC1 | inconclusive [inhibitor, partial curve, poor fit] | – |
| CCOc1ccc(CNC(=O)c2nn(-c3ccc(OC)cc3)c(=O)c3c2c2ccccc2n3C)cc1 | inactive | – |
| C=CCN(C(=O)Cn1nc(C)n2c(cc3cc(C)ccc32)c1=O)c1ccccc1 | inconclusive [inhibitor, single point] | – |
| Cc1ccc(C)c(NC(=O)C2C(c3ccccc3)C2(Cl)Cl)c1 (stereo not given) | inconclusive [inhibitor, single point] | – |
| OCCCNc1ncnc2c1ncn2[C@H]1CN(Cc2ccco2)C[C@@H](CO)O1 | inactive | – |
| COc1ccc2[nH]cc(CCNc3ncncc3-c3ccc(C(=O)N(C)C)cc3)c2c1 | inconclusive [inhibitor, single point] | – |
| Cc1ccc(-c2ccc(CCC(=O)O)n2-c2ccc(C(N)=O)cc2)cc1 | inactive | – |
| NC(=O)C1CCN(CC(=O)Nc2cc(S(=O)(=O)N3CCOCC3)ccc2N2CCCC2)CC1 | inactive | – |
| Cc1oc(-c2cccs2)nc1CN1CCC(CO)(CCOc2ccccc2)CC1 | inconclusive [inhibitor, partial curve] | – |
| CCOc1ccc2nc(NC(=O)Nc3ccccc3)sc2c1 | inconclusive [inhibitor, partial curve, poor fit] | – |
| O=S(=O)(c1ccc(F)cc1)N1CCN(CC(O)COCC2CCCO2)CC1 (stereo not given) | inactive | – |
| O=C(OCC(=O)c1c[nH]c2ccccc12)c1ccc(OC(F)F)cc1 | inactive | – |
| CN(c1ccc(C(=O)Nc2ccc(F)cc2F)cc1)S(=O)(=O)c1ccccc1 | inactive | – |
| Cc1ccc(-c2c(C(=O)NCCc3ccccc3)oc(=O)c3ccccc23)cc1 | active: 14.6 µM | – |
| COc1cccc(NS(=O)(=O)c2ccc(C)c(C(=O)N3CCCCC3)c2)c1 | inconclusive [inhibitor, single point] | – |
| COc1ccc2cc(-c3cc(C(=O)O)c4ccccc4n3)ccc2c1 | inconclusive [inhibitor, single point] | – |
| Cc1cc2c(cc1C)N(C(=O)CSc1nncn1C)C(C)(C)c1ssc(=S)c1-2 | active: 29.1 µM | – |

| SMILES | Potency | activity change, negative = growth inhibition |
| --- | --- | --- |
| CCCSc1nc(-c2ccccc2)[nH]c1S(=O)(=O)c1ccc(C)cc1 | inconclusive [inhibitor, single point] | – |
| COc1ccc(-c2n[nH]c3c2cnc2ccc(F)cc23)cc1 | inactive | – |
| CCCCN(C)c1c(C)nc2ccc(C(=O)Nc3ccc(OC)c(OC)c3)cn12 | inconclusive [inhibitor, single point] | – |
| CCN1C(=O)[C@@H]2[C@@H](c3ccc(-c4cccc(Cl)c4)c(OC)c3)N3CCCC[C@@]3(C(=O)OC)[C@@H]2C1=O | inconclusive [inhibitor, single point] | – |
| Cc1cc(Cl)ccc1-c1nc(NCCN(C)C)nc2ccsc12 | inconclusive [inhibitor, single point] | – |
| COc1ccc(N2CCN(C(=O)NC34CC5CC(CC(C5)C3)C4)CC2)cc1 | inconclusive [inhibitor, single point] | – |
| O=C(COc1ccc(-c2nnc(N3CCCCC3)c3ccccc23)cc1)N1CCCCC1 | inconclusive [inhibitor, partial curve] | – |
| CC(C)C[C@@H](NC(=O)[C@H]1CCCN1C(=O)Cc1ccccc1)C(N)=O (PhAc-[dP]-[dL]-NH2) | inactive | – |
| Cc1ccnc(SCCn2c(N(C)Cc3ccccc3)nc3c2c(=O)n(C)c(=O)n3C)n1 | inconclusive [inhibitor, single point] | – |
| CN(CCc1ccccc1)C(=O)c1ccc(NC(=O)Cc2cccc(NC(=O)C3CCN(C(=O)C4CCC4)CC3)c2)cc1 | active: 16.4 µM | – |
| O=C(Cn1cc(COc2ccc(C(=O)c3ccccc3)cc2)nn1)c1ccc(O)cc1 | inactive | – |
| COC1=CC(=O)C(C(=O)c2ccccc2)=CC1=O | inconclusive [inhibitor, single point] | – |
| CCCCCCCCOC(=O)CCc1c(C)[nH]c(=S)[nH]c1=O | inconclusive [inhibitor, single point] | – |
| C[C@@H]1CCCCO[C@H](CN(C)C(=O)Nc2ccc3c(c2)OCO3)[C@@H](C)CN([C@H](C)CO)C(=O)c2cc(NS(=O)(=O)c3ccc(F)cc3)ccc2O1 | inconclusive [inhibitor, single point] | – |
| CCOc1ccc(C(=O)NC(=S)Nc2ccccc2N2CCOCC2)cc1Br | inconclusive [inhibitor, single point] | – |
| CC1(c2ccc(OC(F)F)cc2)NC(=O)N(CC(=O)Nc2cccc(F)c2)C1=O (stereo not given) | inconclusive [inhibitor, single point] | – |
| COc1ccc(Cl)cc1N(C(=O)c1ccco1)C(C(=O)NC1CCCC1)c1ccco1 (stereo not given) | inactive | – |
| COc1ccc2c(c1)c1c(c(=O)n(Cc3ccccc3)c(=O)n1Cc1cccc(Cl)c1)n2C | inconclusive [inhibitor, partial curve] | – |
| CCc1nc2c(OCc3cccc(Cl)c3)cccn2c1N(C)C(=O)c1ccncc1 | inconclusive [inhibitor, single point] | – |
| COc1cc(/C=C2/SC(=S)NC2=O)ccc1OS(=O)(=O)c1ccc(C)cc1 | inconclusive [inhibitor, single point] | – |
| COc1cccc(NS(=O)(=O)c2cc(C)ccc2OC)c1 | inconclusive [inhibitor, single point] | – |
| COc1ccccc1NC(=O)c1cnc(SCC(=O)N2CCOCC2)n(C)c1=O | inconclusive [inhibitor, single point] | – |
